From PubChem BioAssay AID493208 (National Center for Advancing Translational Sciences (NCATS), 2011)
Hit rate of the full screen: of about 44,000 compounds, about 340 (0.77%) were called active. Not shown: some 5% with an inconclusive outcome. Calls follow the shape of the dose curve; as a rule, active = well fitted inhibition curve with a large enough effect; inconclusive = small, poorly fitted or top-dose-only effect; inactive = flat fitted curve, though single readings scatter. This is one part of the list.

Test: Acumen qHTS Assay for Inhibitors of the mTORC1 Signaling Pathway in MEF (Tsc2-/-, p53-/-) Cells: Sytravon; also: nearly all actives have a fitted effect of over 50% in size;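 as to activity change, negative = inhibition: plate controls were DMSO for no effect and rapamycin for full effect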
Details: phospho-rpS6 immunofluorescence/PI, 24 h; series mostly up to 38.3 µM; activity change, negative = inhibition: at the top concentration
Outline: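 Cell-based qHTS: Tsc2-/- p53-/- MEF, 24 h cpd, 37 °C; fix/perm, anti-phospho-S6 Alexa-488 + PI; Acumen 488 nm scan; pS6/PI ratio, % positive cells; rapamycin 7.5 nM = inhibition ref; PI count = viability.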
Potency is read from the fitted curve at half-maximal effect.

Question: With `Cc1ccc(NS(=O)(=O)c2c(C)nc3sc(C)cn3c2=O)c(C)c1` as the compound, how does the “activity change, negative = inhibition” value read?
Answer: The value was inactive: -0.619%.

Question: For `Cc1nc2c(c(C)nn2C(C)(C)C)c(C)c1CCC(=O)Nc1ccc(Br)cc1Br`, which “activity change, negative = inhibition” value is on record?
Answer: Its value is inactive: 0.465%.

Question: For `CCC(=O)Nc1cc2nn(-c3ccc(C)cc3)nc2cc1C`, which “activity change, negative = inhibition” value is on record?
Answer: The value was inactive: 8.06%.

Question: With `Cc1ccc(NC(=O)[C@@H](c2ccccc2)N2Cc3ccccc3C2=O)cc1F` as the compound, how does the “activity change, negative = inhibition” value read?
Answer: The value was inactive: -17.4%.

Question: For `CCCc1nn2c(=O)cc(COC(=O)c3ccco3)nc2s1`, which “activity change, negative = inhibition” value is on record?
Answer: The value was inactive: -20.5%.

Question: For `COc1ccc(CCNC(=O)Cn2c(=O)c3cccn3c3ccccc32)cc1OC`, which “activity change, negative = inhibition” value is on record?
Answer: Its value is inactive: -1.22%.

Question: Which “activity change, negative = inhibition” value does the source give for `Cc1c(C(=O)NCc2ccc(F)cc2)sc2nc(-c3ccc(F)cc3)cn12` here?
Answer: The value was inactive: -0.522%.

Question: Which “activity change, negative = inhibition” value does the source give for `CCCCOc1ccccc1C1CC(=O)Nc2cc(OC)c(OC)cc21` (centres undefined) here?
Answer: Its value is inactive: 0.37%.

Question: With `CC(=O)Nc1c(C)nn(-c2ccccc2)c1N1CCC(C(=O)Nc2cccc(C(F)(F)F)c2)CC1` as the compound, how does the “activity change, negative = inhibition” value read?
Answer: Its value is inactive: 4.47%.

Question: Which “activity change, negative = inhibition” value does the source give for `CCOC(=O)Cn1c(=O)n(CC2CCCO2)c2nc(-c3ccc(CC)cc3)nc(C(N)=O)c21` (centres undefined) here?
Answer: Its value is inactive: 2.78%.

Question: Which “activity change, negative = inhibition” value does the source give for `O=C(CSc1ncc2c(n1)-c1ccc(Cl)cc1N(Cc1ccccc1)S2(=O)=O)Nc1ccccc1C(F)(F)F` here?
Answer: The value was inactive: 1.65%.

Question: For `Cc1cc(C)cc(N(CC(=O)NCc2ccccc2Cl)S(=O)(=O)c2c(C)[nH]c(=O)[nH]c2=O)c1`, which “activity change, negative = inhibition” value is on record?
Answer: The value was inactive: 2.25%.

Question: Which “activity change, negative = inhibition” value does the source give for `CCOc1ccc(NC(=O)CN2CCSc3ccc(S(=O)(=O)N4CCCC4)cc32)cc1` here?
Answer: The value was inactive: -12.7%.

Question: Which “activity change, negative = inhibition” value does the source give for `CCn1cc(S(=O)(=O)c2ccc(C)cc2C)c(=O)c2cc(F)c(N3CCCCC3)cc21` here?
Answer: Its value is inactive: -1.81%.

Question: With `CCN(CC)c1cc2c(cc1F)c(=O)c(S(=O)(=O)c1ccccc1)cn2C` as the compound, how does the “activity change, negative = inhibition” value read?
Answer: The value was inactive: 1.92%.

Question: With `COC(=O)c1c(NC(=O)/C=C/c2ccc(OC)c(OC)c2)sc2c1CCC2` as the compound, how does the “activity change, negative = inhibition” value read?
Answer: Its value is inactive: 10.6%.

Question: With `Cc1noc(Cn2c(=O)c3ccccc3n(CC(=O)Nc3ccc(C(C)C)cc3)c2=O)n1` as the compound, how does the “activity change, negative = inhibition” value read?
Answer: The value was inactive: -7.25%.

Question: Which “activity change, negative = inhibition” value does the source give for `CCN(CC)CCCNC(=O)CN1C(=O)COc2ccc(S(=O)(=O)N3CCC(C)CC3)cc21` here?
Answer: The value was inactive: -0.644%.

Question: For `CC(Nc1oc(-c2ccc(COc3ccc(Cl)cc3)o2)nc1C#N)c1ccccc1` (centres undefined), which “activity change, negative = inhibition” value is on record?
Answer: The value was inactive: -19.2%.

Question: For `COCCNC(=O)CSc1nnc2[nH]c(=O)cc(C)n12`, which “activity change, negative = inhibition” value is on record?
Answer: Its value is inactive: -0.705%.

Question: For `O=C(NCc1ccccc1)c1ccc2c(c1)nc1n2CCOC1`, which “activity change, negative = inhibition” value is on record?
Answer: The value was inactive: 0.456%.

Question: Which “activity change, negative = inhibition” value does the source give for `CCN(CC)c1ccc(NC(=O)CN2C(=O)c3cccnc3Oc3ccc(Cl)cc32)c(C)c1` here?
Answer: Its value is inactive: -1.85%.

Question: Which “activity change, negative = inhibition” value does the source give for `CCc1ccccc1NS(=O)(=O)c1cc(Br)cc2c1N(C(=O)C1CC1)CC2` here?
Answer: Its value is inactive: -1.12%.

Question: Which “activity change, negative = inhibition” value does the source give for `CCc1cccc(NS(=O)(=O)c2cc(-c3cnc(C)o3)ccc2OC)c1` here?
Answer: Its value is inactive: 10.5%.

Question: Which “activity change, negative = inhibition” value does the source give for `CCOC(=O)Cn1c(=O)n(CC2CCCO2)c2nc(-c3c(F)cccc3Cl)nc(C(N)=O)c21` (centres undefined) here?
Answer: Its value is inactive: -0.736%.

Question: With `CCn1c(=O)c2sccc2n2c(CCCC(=O)Nc3ccc(OC)c(OC)c3)nnc12` as the compound, how does the “activity change, negative = inhibition” value read?
Answer: Its value is inactive: -3.55%.

Question: Which “activity change, negative = inhibition” value does the source give for `COc1ccc(C(=O)Nc2nc3n(n2)C(c2ccc(F)cc2)C=C(c2ccc(Cl)cc2)N3)cc1` (centres undefined) here?
Answer: Its value is inactive: 0.45%.

Question: Which “activity change, negative = inhibition” value does the source give for `CCOC(=O)c1ccc(NC(=O)c2cc3c([nH]c2=O)CC(c2ccccc2)CC3=O)cc1` (centres undefined) here?
Answer: Its value is inactive: 7%.

Question: For `Cc1c(C(=O)N(C)C)sc2c1c(=O)n(-c1ccc(Cl)c(Cl)c1)c(=O)n2CC(=O)Nc1ccc(Br)cc1F`, which “activity change, negative = inhibition” value is on record?
Answer: Its value is inactive: -0.0216%.

Question: With `CCCCC1CCC(CCCC(C)CCC(=O)O)CC1` (centres undefined) as the compound, how does the “activity change, negative = inhibition” value read?
Answer: Its value is inactive: 9.45%.

Question: With `COc1ccc(-n2cc(-c3ccc4c(c3)OCO4)n(CC(=O)Nc3cccc(C)c3)c2=O)cc1` as the compound, how does the “activity change, negative = inhibition” value read?
Answer: The value was inactive: 2.08%.

Question: With `Cc1cccc(NC(=O)Cn2cc(S(=O)(=O)Cc3ccccc3Cl)c3ccccc32)c1` as the compound, how does the “activity change, negative = inhibition” value read?
Answer: Its value is inactive: 3.26%.

Question: For `O=C(CC1N=C2c3ccccc3N=C(SCC(=O)Nc3ccc(F)cc3)N2C1=O)NCc1ccc2c(c1)OCO2` (centres undefined), which “activity change, negative = inhibition” value is on record?
Answer: Its value is inactive: -2.76%.

Question: Which “activity change, negative = inhibition” value does the source give for `CSc1ncc(Cl)c(C(=O)N(Cc2ccc(C(C)C)cc2)C2CCS(=O)(=O)C2)n1` (centres undefined) here?
Answer: The value was inactive: -1.42%.

Question: With `Cc1ccccc1Cn1c(SCc2ccc(C(=O)NCCc3ccccc3)cc2)nc2ccncc21` as the compound, how does the “activity change, negative = inhibition” value read?
Answer: Its value is inactive: -0.498%.

Question: For `Cc1cc(C)n(C(C)CC(=O)Nc2ccc(C)c(F)c2)n1` (centres undefined), which “activity change, negative = inhibition” value is on record?
Answer: The value was inactive: 12.5%.

Question: Which “activity change, negative = inhibition” value does the source give for `O=C(Cc1ccc(Cl)cc1)Nc1ccc2nn(-c3ccccc3)nc2c1` here?
Answer: The value was inactive: -4.81%.

Question: With `Cc1ccccc1C(c1c(C)n(C)n(-c2ccccc2)c1=O)c1c(C)n(C)n(-c2ccccc2)c1=O` as the compound, how does the “activity change, negative = inhibition” value read?
Answer: Its value is inactive: -17.7%.

Question: For `CC(C)CCNc1ncnc2c1cnn2-c1cccc(Cl)c1`, which “activity change, negative = inhibition” value is on record?
Answer: Its value is inactive: -1.38%.

Question: For `COCCNC(=O)C(=O)NCC(c1cccnc1)N1CCN(c2ccccc2)CC1` (centres undefined), which “activity change, negative = inhibition” value is on record?
Answer: The value was inactive: 8.53%.

Question: Which “activity change, negative = inhibition” value does the source give for `Cc1ccc(-n2c(SCC(=O)Nc3c(C)cccc3C)nc(O)c(C)c2=O)cc1` here?
Answer: Its value is inactive: -0.584%.

Question: With `CCC1CN(C(=O)N2CCC(C(=O)NCc3ccco3)CC2)c2ccccc2O1` (centres undefined) as the compound, how does the “activity change, negative = inhibition” value read?
Answer: Its value is inactive: 2.86%.

Question: For `CCOc1ccc2c(c1)c(=O)c(C(=O)c1ccc(C)cc1)cn2Cc1ccccc1OC`, which “activity change, negative = inhibition” value is on record?
Answer: Its value is inactive: 0.183%.

Question: Which “activity change, negative = inhibition” value does the source give for `CC(=O)c1cccc(NC(=O)N2CCC(CN3CCCCC3)CC2)c1` here?
Answer: The value was inactive: -5.16%.

Question: For `CC(C)c1ccc(NC(=O)Cn2c(=O)n(Cc3nc(-c4ccccc4)no3)c(=O)c3cc4c(cc32)OCO4)cc1`, which “activity change, negative = inhibition” value is on record?
Answer: The value was inactive: -14.3%.

Question: For `CCOc1ccccc1NC(=O)CN1C(=O)C2(SCC(=O)N2c2ccc(C)cc2)c2ccccc21` (centres undefined), which “activity change, negative = inhibition” value is on record?
Answer: Its value is inactive: 2.15%.

Question: With `Cc1ccc(-n2ncc3c(=O)n(Cc4ccccc4C)cnc32)cc1C` as the compound, how does the “activity change, negative = inhibition” value read?
Answer: Its value is inactive: -0.428%.

Question: Which “activity change, negative = inhibition” value does the source give for `Cc1cc(C)c(CN2C(=O)c3ccccc3S(=O)(=O)c3ccc(C(=O)OCC4CCCO4)cc32)c(C)c1` (centres undefined) here?
Answer: The value was inactive: -4.9%.

Question: Which “activity change, negative = inhibition” value does the source give for `CCc1ccc(NC(=O)c2ccc(F)c(S(=O)(=O)NCCc3ccc(OC)c(OC)c3)c2)cc1` here?
Answer: The value was inactive: -17.7%.

Question: Which “activity change, negative = inhibition” value does the source give for `COc1cc(Cl)c(NC(=O)C(NS(=O)(=O)c2cccs2)C(C)C)c(OC)c1` (centres undefined) here?
Answer: Its value is inactive: 0%.

Question: Which “activity change, negative = inhibition” value does the source give for `CCCN(Cc1cccs1)C(=O)Nc1ccc(F)c(Cl)c1` here?
Answer: Its value is inactive: -8.59%.

Question: Which Potency does the source give for `COc1ccc(OC)c(Nc2c3c(nc4ccccc24)CCC3)c1` here?
Answer: The Potency was active: 5.21 µM.

Question: Which “activity change, negative = inhibition” value does the source give for `CS(=O)(=O)N1CCc2cc(C(=O)Nc3ccc(S(N)(=O)=O)cc3)ccc21` here?
Answer: The value was inactive: -1.51%.

Question: With `COc1cccc(Nc2sc(C(=O)c3ccc(Cl)cc3)c(N)c2C(=O)NCCc2ccc(OC)c(OC)c2)c1` as the compound, how does the “activity change, negative = inhibition” value read?
Answer: Its value is inactive: 0.226%.

Question: Which “activity change, negative = inhibition” value does the source give for `CCCSc1nnc2n(-c3cccc(C)c3)c(=O)c3c4c(sc3n12)CCCC4` here?
Answer: The value was inactive: -15%.

Question: With `Cc1cccc(C(=O)OCc2cc(=O)n3nc(-c4cccs4)sc3n2)c1` as the compound, how does the “activity change, negative = inhibition” value read?
Answer: Its value is inactive: -8.85%.

Question: With `Cc1ccc(-n2ncc(C(=O)NCCCN3CCN(C)CC3)c2C2CCN(C(=O)OC(C)(C)C)CC2)c(C)c1` as the compound, how does the “activity change, negative = inhibition” value read?
Answer: The value was inactive: 3.86%.

Question: For `CC(C)(C)OC(=O)N1CCC(c2c(C(=O)N3CCCCC3)cnn2-c2ccc(F)cc2F)CC1`, which “activity change, negative = inhibition” value is on record?
Answer: Its value is inactive: 3.5%.

Question: Which “activity change, negative = inhibition” value does the source give for `Cn1c(Oc2ccccc2)nc2c1c(=O)n(Cc1ccc(Cl)cc1Cl)c(=O)n2C` here?
Answer: Its value is inactive: -0.318%.
